Laboratory results reported in PubChem BioAssay AID651820 (National Center for Advancing Translational Sciences (NCATS), 2012).
The whole screen tested about 340,000 compounds, of which about 12,000 (3.5%) were called active. Inconclusive results, whose numbers are uncertain, are shown with a selection of clear calls. Calls follow the shape of the dose curve; as a rule, active = well fitted inhibition curve with a large enough effect; inconclusive = small, poorly fitted or top-dose-only effect, or another doubt; inactive = no such curve, though single readings can be large or run the other way. No potency is given beside an inconclusive call; the fits are too rough.

Test: qHTS Assay for Inhibitors of Hepatitis C Virus (HCV)
Details: Huh7.5.1 HCVcc-Cre (HCVcc is cell-culture hepatitis C virus) infection, luciferase reporter, 44 h; activity change, negative = inhibition: at 41.8 µM (top of the series)
How it was run: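 Antiviral activity was scored by luciferase reporter output from cells infected with HCVcc-Cre (~0.5 moi) in presence of compound, 44 h infection period, cells seeded 1,000/well 4 h prior.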
% is scaled to controls: 0 for no effect and ±100 for the full control effect; potency is read from the fitted curve at half-maximal effect; tags tell the direction and shape of the fitted curve.

SMILES	Potency	activity change, negative = inhibition
O=C(CSCc1ccc(Cl)cc1)N/N=C/c1ccco1	inconclusive [inhibitor, single point]	
O=C(NCCNc1ccc([N+](=O)[O-])cc1C(F)(F)F)c1cccc(F)c1	inconclusive [inhibitor, full curve]	
CSc1nc(C)c(C(=O)C[n+]2ccccc2C)cc1C#N	inconclusive [inhibitor, partial curve]	
Cn1c(=O)n(C)c2cc(N3CCCCC3)c(NC(=O)c3cccc(Cl)c3)cc21	inconclusive [inhibitor, full curve]	
COc1ccc2nc(NC(=O)C3CCCN(S(=O)(=O)c4cccc5nsnc45)C3)sc2c1 (stereo not given)	inconclusive [inhibitor, single point]	
COc1ccc(N2CCN(C(=O)CCC(=O)N3Cc4ccccc4Oc4ncccc43)CC2)cc1	inconclusive [inhibitor, single point]	
COc1ccc(O)c(C(=O)c2coc(=N)c(C(=O)Nc3ccc(SC(F)F)cc3)c2)c1	inconclusive [inhibitor, single point]	
CN1CCN(S(=O)(=O)c2cccc(C(=O)Nc3ccccc3N3CCCCC3)c2)CC1	inconclusive [inhibitor, single point]	
Cc1cc(C)n(-c2nc(SCCN(C)C)c3c4c(sc3n2)CCCC4)n1	inconclusive [inhibitor, single point]	
O=C(COC(=O)c1ccc(Cl)cc1[N+](=O)[O-])NNC(=O)c1cccs1		inactive: 14.8%
CN=C(c1ccco1)n1c(=S)nc(-c2ccco2)n(C)c1=S	active: 11.2 µM	
COc1ccccc1Nc1nc(NCCC(C)C)nc(N)c1[N+](=O)[O-]	active: 12.6 µM	
CC(=O)N1CCN(S(=O)(=O)c2cccc(C(=O)NCCc3ccc(Cl)cc3)c2)CC1	inconclusive [inhibitor, single point]	
CC(=O)OC1CCC2(C)C(CC(=O)C3C2CCC2(C)C(OC(C)=O)CCC32)C1 (stereo not given)		inactive: 22.3%
Cc1ccc(N2C(=O)N(CC(=O)c3cc(C)ccc3C)C(=O)C2C)cc1 (stereo not given)	inconclusive [inhibitor, single point]	
O=C(CN1C(=O)S/C(=C\c2ccccc2)C1=O)NC1CCS(=O)(=O)C1 (stereo not given)		inactive: -7.58%
Cc1ccc(-c2onc3ccc(Cl)cc23)cc1	inconclusive [inhibitor, single point]	
Cn1c(=O)c2c(nc(NCCNC(=O)c3ccco3)n2Cc2ccc(F)cc2)n(C)c1=O	inconclusive [inhibitor, single point]	
CCn1c(CNC(=O)c2cc(OC)c(OC)c(OC)c2)cc2cc(C)ccc21	inconclusive [inhibitor, full curve]	
COc1nn(-c2ccccc2)c(=O)c(Cl)c1Cl	active: 3.98 µM	
CS(=O)(=O)c1ccc(-c2cccc(NC(=O)COc3ccccc3)c2)nn1		inactive: -6.13%
COc1ccc(S(=O)(=O)N(C)C)cc1NC(C)C(=O)Nc1cccc(C#N)c1 (stereo not given)		inactive: -6.89%
COCCNC(=O)C1(C)Oc2ccccc2NC1=O (stereo not given)	inconclusive [inhibitor, partial curve]	
C=CCc1ccc(OCC(O)CN2CCN(Cc3ccc(Cl)cc3)CC2)c(OC)c1 (stereo not given)	inconclusive [inhibitor, partial curve]	

SMILES	Potency	activity change, negative = inhibition
CCOC(=O)c1cccc(NC(=O)CCn2cccc2)c1		inactive: -3.56%
Cc1ccc(C2=NN(C(=O)c3ccco3)C(O)(C(F)(F)F)C2)cc1 (stereo not given)	inconclusive [inhibitor, partial curve]	
CN(C)CCNC(=O)c1cccn(Cc2cc(C(F)(F)F)cc(C(F)(F)F)c2)c1=O	inconclusive [inhibitor, full curve, poor fit]	
Cc1cnc(NC(=O)Cc2c[nH]c3ccccc23)s1		inactive: -24.4%
COc1cc(-c2ncc3ccccn23)cc(OC)c1OC		inactive: -4.99%
COc1ccc(-c2noc(C)c2-c2ccc3ccccc3n2)c(O)c1	inconclusive [inhibitor, single point]	
COc1ccc(-c2csc(NC(C)c3nc4cc(Cl)c(N5CCCCC5)cc4n3CCCO)n2)cc1 (stereo not given)	inconclusive [inhibitor, single point]	
COc1ccccc1C1CCN(C(=O)c2cnn(-c3ccccc3)c2C)CC1	inconclusive [inhibitor, single point]	
CCOC(=O)c1cccc(NC(=O)COc2ccc([N+](=O)[O-])cc2)c1	inconclusive [inhibitor, single point]	
CC(=O)Oc1c(C)cc(Cl)cc1C(=O)Nc1ccc([N+](=O)[O-])cc1Cl	inconclusive [inhibitor, full curve]	
COCCNC(=O)c1c(N)n(/N=C/c2cccs2)c2nc3ccccc3nc12	inconclusive [inhibitor, partial curve]	
CCNC(=O)O/N=C1\CCCCC1c1ccc([N+](=O)[O-])cc1[N+](=O)[O-] (stereo not given)		inconclusive: -33.6% [inhibitor]
Cc1ccc(OCC(O)CN2CCc3ccccc3C2)c(C)c1 (stereo not given)	inconclusive [inhibitor, single point]	
Cc1c(C(=O)O/N=C(\N)c2ccccn2)cccc1[N+](=O)[O-]	inconclusive [inhibitor, single point]	
CN(C(=O)c1ccc(N2CCCCC2)c([N+](=O)[O-])c1)C1CCS(=O)(=O)C1 (stereo not given)	inconclusive [inhibitor, partial curve]	
Cn1c(SCC(=O)N2CCCc3ccccc32)nnc1-c1c[nH]c2ccccc12		inactive: -5.63%
COc1cc(C(=O)NC(=S)Nc2ccc3c(c2)C(=O)N(C)C3=O)cc(OC)c1OC	active: 10 µM	
Nc1nccc(-c2ccc(-n3cnc4ccccc43)cc2)n1		inactive: -6.54%
c1ccc2c(Nc3nc(N4CCOCC4)c4ccccc4n3)cccc2c1	inconclusive [inhibitor, single point]	
CCn1cc([N+](=O)[O-])c(C(=O)N2N=C(c3ccc4ccccc4c3)CC2c2ccccc2O)n1 (stereo not given)	active: 10 µM	
Cc1nnc(N/N=C/c2cc(C)n(-c3ccc(F)cc3)c2C)n1N	inconclusive [inhibitor, single point]	
Cc1ccc2nc(Nc3nc(C)cc(-c4ccccc4)n3)[nH]c(=O)c2c1	inconclusive [inhibitor, full curve]	
O=C(Nc1ccccn1)c1ccc(Cl)c(S(=O)(=O)N2CCCCCC2)c1	inconclusive [inhibitor, single point]	
CC1(C)Oc2ccc(C(=O)NC3CCCC3)cc2N(CC(=O)N2CCOCC2)C1=O		inactive: 10.3%

SMILES	Potency	activity change, negative = inhibition
CCOC(=O)c1cc(C(=O)NNC(=O)c2cccc([N+](=O)[O-])c2)c(C)nc1C	inconclusive [inhibitor, single point]	
O=C(Nc1nc(-c2ccccc2)cs1)c1cccs1	inconclusive [inhibitor, single point]	
O=C(NCc1ccccn1)C(=O)Nc1nc(C23CC4CC(CC(C4)C2)C3)cs1	inconclusive [inhibitor, single point]	
Cc1n[nH]c(C)c1S(=O)(=O)N(C)Cc1ccco1		inactive: 3.73%
COc1ccc(NC(=O)Nc2ccc3nsnc3c2)cc1	inconclusive [inhibitor, partial curve]	
COC(=O)c1c(NC(=O)C2CCCO2)sc2c1CCC2 (stereo not given)	active: 5.62 µM	
CC(c1ccc2c(c1)OCO2)n1c(=S)[nH]c2ccccc2c1=O (stereo not given)	inconclusive [inhibitor, partial curve]	
O=C(N/N=C/c1c(Nc2cccc(C(F)(F)F)c2)nc2ccccn2c1=O)c1ccccc1[N+](=O)[O-]	inconclusive [inhibitor, partial curve, poor fit]	
COc1ccc(C(CNC(=O)CNC(=O)c2cccc(Cl)c2)N2CCCC2)cc1 (stereo not given)		inactive: 13.1%
COc1ccc(Cl)cc1NS(=O)(=O)c1cccc(C(=O)NC2CCC(O)CC2)c1 (stereo not given)		inactive: 10%
C=CCn1nc(-c2ccccc2)cc1C(=O)OCC		inactive: -4.24%
c1ccc2c(c1)[IH]c1ccccc1-2	active: 0.0282 µM	
Cc1oc2c(c1C(=O)NCCO)CCCC2		inactive: 10.6%
COc1ccccc1NC(=O)CN(c1ccc(C)cc1)S(=O)(=O)c1c(C)n[nH]c1C	inconclusive [inhibitor, single point]	
COC(CNC(=O)c1ccc2nc(-c3ccccc3)c(-c3ccccc3)nc2c1)OC	active: 10 µM	
CC(=O)Nc1ccc(-c2csc(N/N=C(/C)c3ccccc3)n2)cc1	active: 1.26 µM	
CC(=O)c1ccc(S(=O)(=O)N2Cc3ccccc3CC2C(=O)O)cc1 (stereo not given)		inactive: 29.9%
O=c1c2c(-c3cccs3)csc2ncn1-c1ccc(Br)cc1	inconclusive [inhibitor, full curve, poor fit]	
Cc1nn(Cc2ccc(Cl)cc2)c(C)c1NC(=O)c1cc(-c2ccc3c(c2)OCO3)on1	active: 31.6 µM	
Cc1csc(NC(=S)NC(=O)c2ccccc2)n1	inconclusive [inhibitor, single point]	
N=c1c(S(=O)(=O)c2ccc(Br)cc2)cc2c(=O)n3ccccc3nc2n1C1CCCCC1	inconclusive [inhibitor, partial curve]	
CCN(CC)S(=O)(=O)c1cccc(NC(=O)CN2C(=O)NC3(CCC(C)CC3)C2=O)c1 (stereo not given)	inconclusive [inhibitor, single point]	
